The values below come from ChEMBL document CHEMBL4888484, “Replenishing the malaria drug discovery pipeline: Screening and hit evaluation of the MMV Hit Generation Library 1 (HGL1) against asexual blood stage Plasmodium falciparum ,using a nano luciferase reporter read-out” (2022).

By % Inhibition is commonly meant the relative decrease from the control value, in per cent.

The campaign covered roughly 150,000 compounds. About 540 (0.36%) showed an effect of 50% or more. The list shows a part of the results.

This experiment concerns Plasmodium falciparum. In words: Primary screen in NF54 nanoGlo assay, in single point, at 2uM, 72h; a lower Z score goes with more inhibition. In kind it is functional, Erythrocyte. To be noted: timepoint 72 hour.
Regarding `O=C1[C@@H]2CCCN2[C@@H](c2ccccc2Cl)N1c1ccccn1`, the “% Inhibition” value is given as -11% and the Z score is 1.39.
In the case of `O=C(NC1CCCCC1)Oc1cc2sc(=O)oc2cc1Br`, the “% Inhibition” value is recorded as -5% and the Z score amounted to 0.79.
Turning to `C[C@@H](Cc1ccco1)NC(=O)Oc1ccccc1`, the “% Inhibition” value is recorded as -10% and the Z score was determined as 1.45.
With `Cc1ccc2c(c1)[C@@H]1CN(C)CC[C@H]1N2`, the “% Inhibition” value is recorded as 5% and the Z score is on record as -0.6.
As for `c1cc(CN2CC[C@]3(CCOC3)C2)ccn1`, the “% Inhibition” value is -17% and the Z score was determined as 1.82.
On the same counts, the results for `O=C(CCc1nc(C2=CCN(Cc3ccc(Cl)cc3)CC2)no1)NCc1cccnc1` are -12% and 1.41.
With `O=C(Cc1ccccc1)N1CCC2(CC1)OCCO2`, the “% Inhibition” value is on record as -13% and the Z score is reported as 1.24.
On the same counts, the results for `O=C(NCC(=O)N1CCC2(CC1)OCCO2)c1ccco1` are 6% and -1.17.
As for `O=C1NC(=O)C2(Cc3ccccc3N3CCCCC32)C(=O)N1c1ccccc1` (stereo unspecified), the “% Inhibition” value turned out to be 6% and the Z score is given as -0.73.
Take `O=C(NCC#CCN1CCOCC1)c1ccc[nH]c1=O`: the “% Inhibition” value was determined as 4% and the Z score is -0.56.
Turning to `O=C(c1cnc[nH]c1=O)N1C[C@@H](c2cc(F)cc(F)c2)[C@@H]2[C@H]1C1CCN2CC1`, the “% Inhibition” value is given as -12% and the Z score is given as 1.78.
In the case of `FC(F)(F)c1cccnc1CN1CCCC2(C1)OCCO2`, the “% Inhibition” value was -8% and the Z score was found to be 1.45.
`CNc1ncc(CN(C)C(=O)Nc2cnns2)cn1`: the “% Inhibition” value is reported as -9% and the Z score is 1.1.
For `CCc1nc(CN2C[C@@H]3CC[C@H]2CN(Cc2ccccn2)C3)cs1`, the “% Inhibition” value is reported as -7% and the Z score is 1.03.
Regarding `Cc1nn(C(C)(C)C)cc1C(=O)Nc1n[nH]c2c(Cl)cccc12`, the “% Inhibition” value was determined as 12% and the Z score is -1.52.
For `CCOC(=O)C(C)N1CCN2C(=O)NC(=O)C2C1` (stereo unspecified), the “% Inhibition” value was -14% and the Z score came to 1.79.
The corresponding values for `Cc1nc(CC(=O)N(C)[C@H]2CCCN(CCCc3ccccc3)C2)cs1` are -4% and 0.51.
Turning to `Cc1cc(NC(=O)c2ccc(F)cc2Cl)sc1C(=O)N1CCC2(CC1)OCCO2`, the “% Inhibition” value was -13% and the Z score is recorded as 1.32.
For `CCC(=O)N1CCC2(CC1)N(c1ccccc1)C(=O)C[S@+]2[O-]`, the “% Inhibition” value is recorded as -5% and the Z score is given as 0.9.
In the case of `Cc1cc(CN2CCN(C(=O)Cc3c(C)nn(C)c3C)CC2)on1`, the “% Inhibition” value is reported as -7% and the Z score amounted to 1.48.
On the same counts, the results for `COc1ncccc1CN1CC2(CCC2)[C@@H]1C1CCOCC1` are -9% and 1.37.
Regarding `CN(C)S(=O)(=O)N1[C@@H]2CC[C@H]1Cc1nc(-c3ccccc3)[nH]c(=O)c1C2`, the “% Inhibition” value is given as 3% and the Z score is -0.59.
On the same counts, the results for `Cc1csc(NC(=O)c2ccc3c(c2)CCNCC3)n1` are -11% and 1.7.
`CC1(C)C(C(=O)N[C@H]2CCC(=O)N[C@@H]2c2ccccc2)C1(C)C`: the “% Inhibition” value is -4% and the Z score was 0.47.
With `CCc1nsc(N2CCC3CCC(C2)N3C)n1` (stereo unspecified), the “% Inhibition” value came to 38% and the Z score is recorded as -5.92.
As for `c1ccc2c(CN3CCCCCC3)c[nH]c2c1`, the “% Inhibition” value was 5% and the Z score is reported as -0.53.
On the same counts, the results for `O=C(Cn1c(-c2ccccc2)noc1=O)Nc1ccccc1Cc1ccccc1` are 5% and -0.91.
For the molecule `CC1CCC(NC2CCC(O)CC2)CC1` (stereo unspecified), the “% Inhibition” value was -6% and the Z score is 0.9.
Take `COc1c(C)cc(C(=O)[C@H]2CCCN(Cc3ncc[nH]3)C2)cc1C`: the “% Inhibition” value is recorded as -14% and the Z score stood at 1.97.
For `Cc1ccc(Cn2cnc([C@@H]3COCCN3)n2)c(C)n1`, the “% Inhibition” value turned out to be 0% and the Z score is recorded as 0.02.
Take `CCN(CC)C(=O)Oc1ccc2c(ccn2Cc2ccc(F)c(F)c2)c1-c1ccc(OC)cc1`: the “% Inhibition” value was 2% and the Z score is -0.43.
The corresponding values for `O=C(NCC1CCc2ccccc2CC1)c1ccc(-c2noc(=O)[nH]2)cc1` are -13% and 2.29.
As for `C[C@H](O)CN1CC=C(c2noc(CN(C)C(=O)N3CCCC3)n2)CC1`, the “% Inhibition” value is listed as -16% and the Z score turned out to be 2.13.
Regarding `COc1cccc(C(=O)[C@H]2CCCN(Cc3c[nH]c(C)n3)C2)c1`, the “% Inhibition” value was -14% and the Z score turned out to be 2.08.
For `O=C(O)c1cccnc1N1CCC[C@H]1c1cccnc1`, the “% Inhibition” value stood at 4% and the Z score is -0.55.
With `C/C=C(\C)CN(C)CCc1ccccn1`, the “% Inhibition” value worked out at 6% and the Z score is reported as -0.85.
Regarding `Cc1ncccc1OC[C@H]1CCCN1Cc1cnn(C(C)(C)C)c1`, the “% Inhibition” value is 8% and the Z score is reported as -0.98.
For `O=C(COC(c1ccccc1)c1ccccc1)N1CCC2(CC1)OCCO2`, the “% Inhibition” value is -8% and the Z score was found to be 1.38.
`CCn1nncc1CN(CCc1ccccc1)[C@H]1CCOC1`: the “% Inhibition” value was -14% and the Z score was determined as 1.47.
Turning to `CC[C@]1(CCC(C)C)C(=O)NC(=O)N(C(=O)c2cccc(Cl)c2)C1=O`, the “% Inhibition” value is given as -5% and the Z score is 0.71.
With `CCCn1nnnc1CN(C)CCc1ccccc1OC`, the “% Inhibition” value stood at 11% and the Z score is -1.55.
On the same counts, the results for `CN1C(=O)N(C)C(=O)C2(Cc3cc(C(F)(F)F)ccc3N3CCC(c4ccccc4)CC32)C1=O` (stereo unspecified) are 2% and -0.4.
Consider `CC(=O)N[C@H]1C[C@H]2CN(Cc3ccc(C)cn3)CC(=O)N2C1`, for which the “% Inhibition” value is recorded as -15% and the Z score stood at 1.34.
